Earlier results as cited in PMC11006913.
The list shows a part of the results.

Target: T1, HESX1 R160C (Homo sapiens) (UniProt Q9UBX0)
T1 sequence: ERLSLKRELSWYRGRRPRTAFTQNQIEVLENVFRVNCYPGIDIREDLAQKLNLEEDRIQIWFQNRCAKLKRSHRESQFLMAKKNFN
Conditions: PBM; conditions not shown; double strand, one strand shown; scale: upbm affinity estimate (log intensity, higher = more binding, comparable within an allelic series)

Binding signal, 9.98:
GCCTGCGC [8-mer GCCTGCGC]
AGGCCCGG [8-mer AGGCCCGG]
GGGGGTCA [8-mer GGGGGTCA]

Binding signal, 10:
AGGCGCCT [8-mer AGGCGCCT]
GGACGCCC [8-mer GGACGCCC]
CCCTAAGG [8-mer CCCTAAGG]
AGGACGCC [8-mer AGGACGCC]
CCACGGCC [8-mer CCACGGCC]
CGACCGGC [8-mer CGACCGGC]
AGGGAGCG [8-mer AGGGAGCG]
ACCCCCGC [8-mer ACCCCCGC]
AGGGCCCG [8-mer AGGGCCCG]
CCACCATC [8-mer CCACCATC]
AGGCCAGG [8-mer AGGCCAGG]
CCGTCTAG [8-mer CCGTCTAG]

Binding signal, 9.84:
CCCGGGCC [8-mer CCCGGGCC]

Binding signal, 9.95:
GCCGCTCC [8-mer GCCGCTCC]
ACCCACGG [8-mer ACCCACGG]

Binding signal, 10.1:
ACCGAGCG [8-mer ACCGAGCG]
CAAGCACC [8-mer CAAGCACC]
CGGCACAG [8-mer CGGCACAG]
AGCCCCTG [8-mer AGCCCCTG]
AAAGACGC [8-mer AAAGACGC]
CAGTGAGG [8-mer CAGTGAGG]
AACCGGGT [8-mer AACCGGGT]
CGTGCCGA [8-mer CGTGCCGA]
GCGCGTCC [8-mer GCGCGTCC]
AGGCAGAC [8-mer AGGCAGAC]
CAAGCGGC [8-mer CAAGCGGC]
CCGGAGCA [8-mer CCGGAGCA]
CCGGATCG [8-mer CCGGATCG]

Binding signal, 10.2:
CGTAGGCC [8-mer CGTAGGCC]
CATGGGCG [8-mer CATGGGCG]

Binding signal, 9.94:
CTGACGCC [8-mer CTGACGCC]

Binding signal, 9.97:
CTCCTCTC [8-mer CTCCTCTC]

Binding signal, 9.96:
CCTGGGCA [8-mer CCTGGGCA]
CGGGTACC [8-mer CGGGTACC]

Binding signal, 9.99:
GCGGGCCA [8-mer GCGGGCCA]

Binding signal, 10.3:
ATTAGTGG [8-mer ATTAGTGG]
CATTATTA [8-mer CATTATTA]
